Source: the supplement of paper PMC11417369
± gives the standard deviation of the averaged measurements. The list shows a part of the results.

What follows are sequences tested on PfAP2-I AP2 domain 3 (GST-tagged) (assay: gcPBM binding intensity (ln(normalized median fluorescence intensity)); higher = stronger DNA binding).
How it was run: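 GST-fused DNA-binding domains of P. falciparum, expressed in E. coli, were applied at about 25 μg on average for 1 h to an Agilent 4 × 180k array of primer-extended double-stranded 36-bp intergenic genomic probes and negative controls. Binding intensity is the highest Masliner-normalised natural-log median intensity across replicate spots of either probe orientation, measured with Alexa488 anti-GST antibody and a 488 nm scan.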

Row | Sequence | gcPBM binding intensity (ln)
1 | TTTTCATTTTTCTTTACACACATATATTTATTTATA [CACACA_site7119] | 8.19 ± 0.36
2 | TATATATATATTGAAGTGCAAAATACTGTACGTAAT | 9.98 ± 0.21
3 | GAAATAATTTCATATACACACATATACATACATACA [CACACA_site1358] | 8.44 ± 0.72
4 | AAAAGAATATAAAGATACATTGTGATATGGGACAAA [CACACA_negctrl_site405] | 7.8 ± 0.66
5 | TATATATATATAAACAGTACACAAATTGTAAATAAA [XGTACX_site8268] | 9.11 ± 0.085
6 | TTAATTCTACTTATTACACACATATTAATCAAAAAT [CACACA_site1478] | 7.89 ± 0.35
7 | TATATATATATATATATTGAAATTTATAATAATATT [TGCATGCA_negctrl_site407] | 9.09 ± 0.26
8 | ATTTTTTTATGTACACAAAAAAAAAAAAAAATTTAA [CACACA_negctrl_site1028] | 7.99 ± 0.099
9 | AACATAGAAACGTTATGTACATATTGAAGGATATTA [XGTACX_site6015] | 7.82 ± 0.52
10 | AAATATTTATACTATACACACCCAATTTAAAAAAAA [CACACA_site6669] | 7.95 ± 0.47
11 | ATTTCTAGTTTAAGATGTACTTTAATAAAAATTATT [XGTACX_site4820] | 7.66 ± 0.46
12 | ATCTTTGGAAATTTATGTACTTATATTTATATTGTA [XGTACX_site6606] | 7.71 ± 0.57
13 | AAATATCAACAAAAATGTACAAATGTAAAAGAATAT [XGTACX_site4676] | 8.02 ± 0.69
14 | ACTATACAGTTATACACACACATATATATATAATAT [CACACA_site310] | 8.25 ± 0.49
15 | TTTTTTTTTTAATAAAGTACATATAAATTACCTAAT [XGTACX_site4434] | 7.71 ± 0.54
16 | AGGTTAAAAATAAATACACACATTTTATGTCTGTAT [CACACA_site996] | 7.51 ± 0.61
17 | AAATGAGTATTCATATGTACACAAATAAAAAATTAA [XGTACX_site2968] | 7.77 ± 0.48
18 | ATGGAAGGAAACAATAAAAAAAAAAAAAAATATATA [XGTACX_negctrl_site594] | 7.5 ± 0.28
19 | CATTTAAAGGACAAGCTGCACTTACAAAATAAAAAA | 8.68 ± 0.21
20 | AATGACAACCTTGTCACACATATATATATATATATA [CACACA_site5977] | 9.31 ± 0.45
21 | TTTTTTATTTGACAAGCACACACTTAAATATATATA [CACACA_site3358] | 8.07 ± 0.52
22 | ATTTTTATATAATGAACACACATATTATATCATTTA [CACACA_site1572] | 7.67 ± 0.69
23 | AAAAGAAAATAAGAAACACACAAAAATATGTAAAAA [CACACA_site7694] | 7.45 ± 0.88

Row | Sequence | gcPBM binding intensity (ln)
24 | TTAGTCATATATATATGTACACACATATATATATTT [XGTACX_site2948] | 7.62 ± 0.43
25 | AAAATCCACATTTTAGTACACACTTAAAAAATTATT [CACACA_site2955] | 8.05 ± 0.38
26 | GAACATACTCAAATAGCACACACATAAATAAAAATG [CACACA_site9283] | 8.29 ± 0.38
27 | TATATATATATAATATGTACATATAATCAACATTTT [XGTACX_site3915] | 8.93 ± 0.15
28 | TTATATATATATATATGTACGAAAAAGAAAAAAAAG [XGTACX_site6761] | 8.01 ± 0.44
29 | AAAAAAAAATACATATGTACATATACATATATATAT [XGTACX_site2975] | 8.9 ± 0.27
30 | ATATTATATAAATATACACACATTGTTTTATAGCAT [CACACA_site2386] | 7.78 ± 0.59
31 | ATATATTTAATTTATGGTACACATAATTTTTTTAGA [XGTACX_site848] | 7.83 ± 0.4
32 | TATATATATATATATACACACATATATATAAATATA [CACACA_site2035] | 9.15 ± 0.4
33 | TTAAAAAAAAGACACACACACATACACATATTTATA [CACACA_site7535] | 7.84 ± 0.33
34 | CACAAAAGTAAGCACGCACACACAACCTGAAATAAA [CACACA_site166] | 8.21 ± 0.38
35 | TAGTAATATATATTTTGTACATAAAATAATATATAA [XGTACX_site7971] | 7.76 ± 0.52
36 | CGTTATTATCCACATACACACAGGAATAAAAAATTA [CACACA_site2883] | 8.05 ± 0.23
37 | ATTTGAAATGCATGAACACACACAGCTATAAATGCA [CACACA_site8229] | 7.88 ± 0.66
38 | TATATATGTTAAAACGTGCACATATATATATATATA [GTGCAC_site9589] | 10.1 ± 0.19
39 | ATAAAATATAAAAAAAGTACAAAAAAAAAAAAAAAA [XGTACX_site6657] | 8.22 ± 0.22
40 | ATATATGCATATTATACACACATATGTATATACATT [CACACA_site965] | 8.12 ± 0.56
41 | ACCCATGATTGTTACAGTACTCTACTTTCTAATATA [XGTACX_site98] | 8.24 ± 0.69
42 | AAACTGTCGCTCATAAAGAAGAATGAAATACATTAA [TGCATGCA_negctrl_site60] | 7.47 ± 0.58
43 | TGGAGGTCAGTTCACAGTACCCAGGAAATCTACGGA [XGTACX_site1995] | 7.45 ± 0.67
44 | TTTTCTGTATATTGTGTGCACACAATTAACAAAAAA [GTGCAC_site9817] | 10 ± 0.2
45 | AAAAAAAAAAAAAATGCACACAATGGCTAGCTGTAC [CACACA_site2273] | 9.15 ± 0.071
46 | ATATTGACAAATATTACACACATATATAAATATGTA [CACACA_site7835] | 7.7 ± 0.5

Row | Sequence | gcPBM binding intensity (ln)
47 | CCATAGATATTTTATACACACATATAACATATTAAT [CACACA_site6312] | 7.74 ± 0.45
48 | ATATAATATTACACAAGTACAAAAATTAATACTAAA [XGTACX_site482] | 7.69 ± 0.38
49 | ATTTATTTTAATATATGTACATATATTTTTTTATTA [XGTACX_site3389] | 7.79 ± 0.41
50 | TATAACTTTTATAGGTGTACCCAATATTATATATAG [XGTACX_site7673] | 7.92 ± 0.028
51 | TATATATAATAAGAAGGTACACGTAAGTAATAATTT [XGTACX_site934] | 8.33 ± 0.58
52 | TTTATATGTTTTGTATTTTTAATAAATATTTTATTA [TGCATGCA_negctrl_site20] | 7.78 ± 0.55
53 | CCATCTTTTTTACGATGTACAAGTATAAGGTATACG [XGTACX_site2697] | 7.76 ± 0.46
54 | ATATATATATATGTATGTACACATATTTTTTAACTT [XGTACX_site431] | 9.205 ± 0.078
55 | AAATAAATAAATTAACGTACATAATAACATTAATAT [XGTACX_site8567] | 7.68 ± 0.23
56 | TTATATTATAGACACACACACAAAAAAAAAAAAAAA [CACACA_site3816] | 8.11 ± 0.48
57 | TGTAAAACCTCCTACACACACCAATTAACTATTCTA [CACACA_site7074] | 7.7 ± 0.53
58 | TATATATATATTATTAGTACTTATTTTTTTTCATAT [XGTACX_site1279] | 8.9 ± 0.13
59 | AATATAATTATATGTGGTACAGAAATAATATAAAAT [XGTACX_site2366] | 8.22 ± 0.52
60 | TTCTTTTTTTTTCTGGGTACATATATTCCAATCACT [XGTACX_site4770] | 8.34 ± 0.33
61 | TTATAAAAGACAAAAGTGCATATATACATATGTATA | 9.49 ± 0.21
62 | AATATATCTTTTTACGGCAACCATATTTTTCCCATT [CACACA_negctrl_site963] | 8.15 ± 0.84
63 | TTTTTTTTTTTTTGATGTACATAAATTAAGAATTAT [XGTACX_site7789] | 8.06 ± 0.67
64 | TATTATGTTATATATTGTACATGTTTATTGAAACAA [XGTACX_site5605] | 7.84 ± 0.5
65 | TTTATATGTGAAAAAAGTACAAGGAAAAAATTAAAC [XGTACX_site7269] | 8.34 ± 0.61
66 | TTTTTTTTAGTATGAACACACATATATATTATAAAA [CACACA_site2935] | 7.69 ± 0.57
67 | TATTAACAAAATATAGCACACATAAATATATATTTA [CACACA_site8005] | 8.465 ± 0.064
68 | ATTATCCATGCATTTACACACACACTAAAAAAAATT [CACACA_site7848] | 8.73 ± 0.38
69 | AATTAAATTTATATGAATGTCAATTATATTGTTATA [XGTACX_negctrl_site261] | 7.33 ± 0.4

Row | Sequence | gcPBM binding intensity (ln)
70 | ATGTATATATATTTGTGTACATATTTAGGAAATAAA [XGTACX_site2904] | 8.04 ± 0.33
71 | TTGAATTAAAAACATACATGCATATATATATATATA [TGCATGCA_site319] | 9.36 ± 0.18
72 | AAAAAGTTACATGGTGGTACTCAAATAAAATATTCT [XGTACX_site5993] | 7.78 ± 0.38
73 | TTATAAAATGGGCAAACACACACAAAAAAAAGATAT [CACACA_site8476] | 8.2 ± 0.73
74 | AATAAATTACTATGTACACACATAAGAGTATAAATA [CACACA_site6940] | 7.83 ± 0.26
75 | GAAAGAATAAAATTTACACACATATATAAATACATA [CACACA_site5273] | 7.38 ± 0.49
76 | AAATATTTTAACGAGAGTACATAATAACAATTTATG [XGTACX_site3865] | 7.67 ± 0.55
77 | AAAAAAAAAAAATACACACACACATATATATATATA [CACACA_site731] | 9.75 ± 0.35
78 | TTTTTTTTTTTTTATTGTACTAAATTATAGAGGGGA [XGTACX_site2609] | 8.15 ± 0.31
79 | ATAAAACAACACACTTGTACTAATTTTTTTTTTTTT [XGTACX_site8377] | 7.75 ± 0.48
80 | TGAATAAATAGACACACACACATATATAAATATGTA [CACACA_site6159] | 7.42 ± 0.35
81 | TAATTTATAAGGTATAACAACAATTGCATCTATCAC [XGTACX_negctrl_site314] | 8 ± 0.24
82 | GAAACGATTTAATACACACACGTATTATAGATATAT [CACACA_site6666] | 7.87 ± 0.47
83 | TTTTTTTTTTTTTTGACACACATAATAAAATACAAA [CACACA_site3080] | 8.17 ± 0.83
84 | AATAAGCATATACAAACATGCATACATATAAATAAA [TGCATGCA_site338] | 7.76 ± 0.46
85 | TATATATTTGTAACGGGTACGTAGGTGTATATTCCA [XGTACX_site6028] | 8.58 ± 0.057
86 | AGCCACGTGGTATATACACACATAATCAAATAAAAT [CACACA_site9364] | 7.89 ± 0.67
87 | CTACATACAAGAATTAAACACACACTAATTATAAAT [CACACA_site8986] | 7.68 ± 0.53
88 | CCTCAATATTCACATACACACAATATCATCGAAGTA [CACACA_site1676] | 7.83 ± 0.5
89 | TTATAATTTTAATGTGCACACAATTAAAATATTATA [CACACA_site5172] | 10.79 ± 0.085
